The values that follow come from publication PMC6212790.

The other results are listed elsewhere or left out. At the low end of the ranking the order means little.

The target of the experiment is T1, GST-Rok (full length) (UniProt O34857).
T1 sequence: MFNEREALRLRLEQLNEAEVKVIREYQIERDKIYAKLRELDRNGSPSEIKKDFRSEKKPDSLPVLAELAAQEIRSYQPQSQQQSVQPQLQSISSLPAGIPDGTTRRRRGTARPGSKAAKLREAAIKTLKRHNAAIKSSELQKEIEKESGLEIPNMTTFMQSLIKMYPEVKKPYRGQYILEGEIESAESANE
As to the kind of experiment: protein binding microarray.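 Also: rank score from −0.5 (least bound) to 0.5 (best bound).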 Particulars: Rok is a gene silencer of Bacillus subtilis; high values mean tight binding; most listed sequences are background and not binding sites; double strand, one strand shown.
In the case of TAATCTAA, the binding signal was 0.241 E-score.

For CCTAATAG, the binding signal was determined as 0.0183 E-score.

Turning to CAAAGTTC, the binding signal is -0.0163 E-score.

AGTATCAT came in with a binding signal of 0.196 E-score.

Take GGACTCAC: the binding signal was -0.132 E-score.

For ATTCTGCA, the binding signal came to 0.137 E-score.

In the case of AACAGGCG, the binding signal is -0.0571 E-score.

For the sequence GAGCTTCC, the binding signal was -0.309 E-score.

For the sequence ACATGGTA, the binding signal was 0.231 E-score.

For the sequence CATCCGCG, the binding signal was -0.0996 E-score.

As for CATCCCCC, the binding signal was -0.393 E-score.

For CCTAACTC, the binding signal is -0.219 E-score.

As for GACCCCGA, the binding signal is -0.356 E-score.

As for ATTCCAGC, the binding signal was -0.0834 E-score.

The sequence GATCGATA gave a binding signal of 0.269 E-score.

Turning to CACGGGCG, the binding signal was -0.264 E-score.

With CAAATGGA, the binding signal is -0.213 E-score.

GTAGGGAA returned a binding signal of 0.0177 E-score.

The sequence CAGTATCG displayed a binding signal of 0.199 E-score.

With CGTCTGGA, the binding signal was -0.0488 E-score.

For the sequence ACTCCTGG, the binding signal is -0.187 E-score.

Turning to GTTAAAAC, the binding signal came out at 0.127 E-score.

As for CGGTGTAC, the binding signal was -0.139 E-score.

On to ACATGGGG, for which the binding signal is -0.0896 E-score.

For CAGGCCAA, the binding signal was -0.252 E-score.

On to AATTGAGC, for which the binding signal was -0.0437 E-score.

Consider AGACCGGC, for which the binding signal is -0.0591 E-score.

On to ATCCATCG, for which the binding signal is -0.0491 E-score.

ATGAACAA showed a binding signal of 0.166 E-score.

Regarding AGTCCGTG, the binding signal turned out to be 0.00594 E-score.

As to ACACGATG, the binding signal turned out to be 0.0393 E-score.

For GGAACCGA, the binding signal was -0.146 E-score.

CTCTATTC: the binding signal came out at 0.00987 E-score.

Sequence AATTCTCC gave a binding signal of 0.199 E-score.

Consider ATAATCGG, for which the binding signal was -0.143 E-score.

On to CACTAAGC, for which the binding signal is -0.0899 E-score.

For CCGACCCA, the binding signal is -0.225 E-score.

As to ATCGTGCC, the binding signal was found to be 0.00076 E-score.

For the sequence AGTCACGG, the binding signal is -0.189 E-score.

Take CATAAATA: the binding signal is 0.195 E-score.

With CGGTCCTC, the binding signal is -0.286 E-score.

Take AGCCGTAT: the binding signal was -0.0672 E-score.

For ACGTAGGG, the binding signal is -0.299 E-score.

The sequence AACATAAC had a binding signal of 0.26 E-score.

The sequence TGAAACCA had a binding signal of 0.00302 E-score.

As for CATGGGCC, the binding signal was -0.295 E-score.

The sequence ACAAGCTA showed a binding signal of 0.118 E-score.

Turning to GATCACGC, the binding signal was -0.219 E-score.

As to ACGCGTCT, the binding signal was -0.00477 E-score.

In the case of GGGCTTTA, the binding signal was -0.275 E-score.

As for ACTGGAAA, the binding signal was determined as 0.0821 E-score.

Regarding GATGTTGA, the binding signal is 0.0108 E-score.

Regarding ACAGACCG, the binding signal is -0.19 E-score.

Consider GCAGAACC, for which the binding signal is -0.0431 E-score.

AATTCCCA had a binding signal of 0.195 E-score.

As to GCGCACTA, the binding signal is -0.0999 E-score.

In the case of ATAATGCG, the binding signal is 0.312 E-score.

As for GGCAGGGA, the binding signal was -0.385 E-score.

In the case of AATTATGT, the binding signal turned out to be 0.289 E-score.

In the case of CGATTTTC, the binding signal was -0.137 E-score.

On to TGTAGGAA, for which the binding signal worked out at 0.0806 E-score.

With AACGAAGA, the binding signal is -0.00118 E-score.

As to CGGAGGAA, the binding signal is -0.194 E-score.

On to TCTGCCCA, for which the binding signal is -0.14 E-score.

With ACCTGGAC, the binding signal was -0.098 E-score.

On to AAGCAAGG, for which the binding signal was -0.19 E-score.

Take CTAATCTA: the binding signal is 0.362 E-score.

In the case of AGTATAAT, the binding signal worked out at 0.301 E-score.

For AATAACGC, the binding signal turned out to be 0.0275 E-score.

Regarding GTCATGCA, the binding signal was -0.122 E-score.

Consider ACCGCCCA, for which the binding signal was -0.194 E-score.

ACATCTTC: the binding signal came to 0.0126 E-score.

For ACTGAATC, the binding signal was 0.0706 E-score.

For the sequence ATCAAGCG, the binding signal was -0.129 E-score.

With GGTCCATA, the binding signal was found to be 0.0263 E-score.

For the sequence GCTGTTCA, the binding signal is -0.0433 E-score.

On to ATTTGTAA, for which the binding signal turned out to be 0.286 E-score.

AAGGACTC: the binding signal is -0.131 E-score.

Take CTTCGCTA: the binding signal is 0.133 E-score.

Take GTGACTCA: the binding signal is -0.06 E-score.

As for CGGCATGC, the binding signal was -0.164 E-score.

As for GAGTCTAA, the binding signal amounted to 0.0229 E-score.

As to ACTTACGA, the binding signal amounted to 0.183 E-score.

For CGAAAGAG, the binding signal was -0.217 E-score.

For the sequence ACGCCATG, the binding signal is -0.0833 E-score.

In turn, AATCTCCG had a binding signal of 0.0469 E-score.

In the case of GGCCGTTA, the binding signal is -0.101 E-score.

GACGGTCA: the binding signal was -0.138 E-score.

For CGGATTCA, the binding signal is -0.0882 E-score.

The sequence AATGAGAT yielded a binding signal of 0.175 E-score.

For the sequence AACGTTCA, the binding signal is -0.0105 E-score.

With ACAAGTCC, the binding signal is -0.211 E-score.

As for CTTGGGAC, the binding signal is -0.314 E-score.

Take CAAGCGCC: the binding signal was -0.222 E-score.

For the sequence ATGATCCG, the binding signal was -0.0331 E-score.

AAAAATAA registered a binding signal of 0.292 E-score.

In turn, GGTGTATA yielded a binding signal of 0.256 E-score.

As to CCGAATCG, the binding signal is -0.0381 E-score.

Consider CTCACCTA, for which the binding signal came out at 0.121 E-score.

Consider GGCCGTAA, for which the binding signal is -0.189 E-score.

In the case of GCCCCCAC, the binding signal was -0.309 E-score.

ACTTTCCA displayed a binding signal of 0.0699 E-score.

In the case of AAGTTTAA, the binding signal is -0.0141 E-score.

For AACTCTGG, the binding signal is -0.176 E-score.

As to TCAGGTCA, the binding signal is -0.07 E-score.

For CACGACAG, the binding signal is -0.108 E-score.

With CCAGTCGG, the binding signal was -0.248 E-score.

For AAATGTAA, the binding signal is 0.389 E-score.

Consider CCTAAACA, for which the binding signal was -0.128 E-score.

CGACGACA: the binding signal was -0.126 E-score.

ACTCTGGG: the binding signal was -0.049 E-score.

AGCCAGAC: the binding signal was -0.135 E-score.

On to ATCAACCG, for which the binding signal was -0.0968 E-score.

For the sequence AACATCAT, the binding signal was -0.0276 E-score.

With GATTGACC, the binding signal worked out at 0.036 E-score.

Regarding CACTACTA, the binding signal is 0.354 E-score.

Consider ATGAAGAC, for which the binding signal is 0.000233 E-score.

For the sequence CGCCTCCC, the binding signal is -0.289 E-score.

As for TGTTCAAA, the binding signal was -0.0535 E-score.

Consider CTCCCTAA, for which the binding signal is -0.172 E-score.

For the sequence AGATTCGC, the binding signal is -0.117 E-score.

Consider AATGCTCG, for which the binding signal was -0.0567 E-score.

On to CTATACAG, for which the binding signal is 0.248 E-score.

Take ACGTTGAA: the binding signal came to 0.0459 E-score.

For GCCCCAAA, the binding signal is -0.273 E-score.

For GAATTATC, the binding signal is 0.236 E-score.

As to CGCCATTA, the binding signal was 0.0629 E-score.

Regarding GCCTCTGA, the binding signal is -0.154 E-score.

On to CGAAGCTC, for which the binding signal was -0.296 E-score.

For the sequence AATCTTAT, the binding signal came out at 0.194 E-score.

For CTTTAGGC, the binding signal was -0.138 E-score.

The sequence AGGTCAAT yielded a binding signal of 0.00352 E-score.

Take CTCACGGA: the binding signal is -0.279 E-score.

For the sequence CAGTGTTA, the binding signal turned out to be 0.0391 E-score.

With AGCAAGCG, the binding signal was -0.0451 E-score.

Regarding ACCGACTG, the binding signal is -0.0242 E-score.

For the sequence TACTTCGA, the binding signal turned out to be 0.332 E-score.

In turn, ATAGTGAT showed a binding signal of 0.12 E-score.

Take AATTTCGA: the binding signal stood at 0.352 E-score.

For the sequence CAACCTTG, the binding signal is -0.116 E-score.

For AGCAGAGA, the binding signal was -0.129 E-score.

As for TCTGCCAA, the binding signal is -0.0949 E-score.

Sequence ATTGTAAG gave a binding signal of 0.0277 E-score.

As for ATGTCGAG, the binding signal was -0.109 E-score.

The sequence AGTCAAAC yielded a binding signal of 0.0377 E-score.

As for CTATAAGA, the binding signal amounted to 0.244 E-score.

Regarding AGATCCGA, the binding signal came out at 0.0377 E-score.

In the case of CCCGGTCC, the binding signal is -0.111 E-score.

ACGATGTA came in with a binding signal of 0.0899 E-score.

For the sequence ACTAAGAA, the binding signal stood at 0.154 E-score.

As for CGGTAATC, the binding signal is -0.0198 E-score.

Regarding CCAATTCG, the binding signal was -0.114 E-score.

On to CAGTAAGC, for which the binding signal is -0.087 E-score.

As to GGGAGTGA, the binding signal was -0.219 E-score.

TTATCCAA came in with a binding signal of 0.0978 E-score.

Take AGTGAAGA: the binding signal is -0.00169 E-score.

AAATCTGC returned a binding signal of 0.0491 E-score.

With CAATCACG, the binding signal is -0.0935 E-score.

ATTTGCCA showed a binding signal of 0.149 E-score.

GATGAACA: the binding signal worked out at 0.143 E-score.

The sequence AGTGCGAT came in with a binding signal of 0.118 E-score.

For AATCATAT, the binding signal was 0.129 E-score.

For ATCTATAG, the binding signal is 0.313 E-score.

For the sequence AGGCGAGA, the binding signal is -0.212 E-score.

Turning to CACTGATC, the binding signal is 0.0518 E-score.

Turning to GACGGTGC, the binding signal is -0.197 E-score.

GTAACTTA showed a binding signal of 0.26 E-score.

CCTCGGAG: the binding signal is -0.231 E-score.

CGCAGTAG displayed a binding signal of 0.139 E-score.

For the sequence CGCGCCCG, the binding signal was -0.262 E-score.

As for AAGGCTTA, the binding signal is -0.139 E-score.

Regarding ATTCCCGC, the binding signal is -0.125 E-score.
